The whole screen tested about 340,000 compounds, of which about 12,000 (3.5%) were called active. This list was built around the results that the source calls inconclusive (neither active nor inactive); the mix of calls is not that of the screen. Calls come from the whole dose curve; as a rule, active = well fitted inhibition curve with a large enough effect; inconclusive = small, poorly fitted or top-dose-only effect, or another doubt; inactive = no such curve, though single readings can be large or run the other way. No potency is given beside an inconclusive call; the fits are too rough.
Test: qHTS Assay for Inhibitors of Hepatitis C Virus (HCV)
Conditions: Huh7.5.1 HCVcc-Cre (HCVcc is cell-culture hepatitis C virus) infection, luciferase reporter, 44 h; series mostly up to 41.8 µM
In short: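 Infectious HCVcc-Cre (~0.5 moi) was added to cells just after compound, with cells seeded 4 h earlier at 1,000 per well. Luciferase activity after 44 h culture reported infection; substrate was incubated 15 min at room temperature before reading.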
Potency is the fitted concentration of half-maximal effect; tags give direction and shape of the fitted curve.

| SMILES | Potency |
| --- | --- |
| Cc1cccc(C(=O)NC(=S)Nc2ccc(Cc3ccncc3)cc2)c1 | inconclusive [inhibitor, single point] |
| CCCC12CN3CCN(CC(C3)/C1=N\NC(=O)c1ccccc1N)C2 | inactive |
| CC1CCCN(CCCN2C(=O)C3C(C(=O)Nc4ccc(Cl)cc4)C4C=CC3(O4)C2C(=O)NC2CCCCC2)C1 (stereo not given) | inconclusive [inhibitor, single point] |
| COc1ccccc1-c1nnc(NC(=O)c2ccc3ncsc3c2)o1 | inconclusive [inhibitor, single point] |
| COc1cccc(Nc2nc(-c3ccccc3)nc3ccccc23)c1 | active: 10 µM |
| CC(C)n1c(SCC(=O)Nc2ccc3c(c2)OCO3)nc2c1c(=O)n(C)c(=O)n2C | inconclusive [inhibitor, partial curve] |
| NC(=O)N/N=C/c1ccc2cccc(OCc3ccccc3)c2n1 | inactive |
| COc1ccc(S(=O)(=O)N2CCCCCC2)cc1C(=O)N(C)CCOc1ccccc1 | inconclusive [inhibitor, partial curve] |
| COc1ccc(OCC(=O)Nc2cc(S(=O)(=O)N3CCCCC3)ccc2OC)cc1 | inconclusive [inhibitor, single point] |
| CCOc1cccc(CN(CC)CC2CCCN(CCc3cccc(OC)c3)C2)c1O (stereo not given) | inconclusive [inhibitor, single point] |
| COc1ccc(CCN(C)CC(=O)Nc2cc(C)nc3ccccc23)cc1OC | inconclusive [inhibitor, full curve, poor fit] |
| O=C(CCC1CCCN(C(=O)c2ccc3c(c2)OCO3)C1)N1CCN(c2ccccn2)CC1 (stereo not given) | active: 10 µM |
| O=C(CN(Cc1ccccc1)C(=O)c1cccc([N+](=O)[O-])c1)Nc1c(Cl)cc(Cl)cc1Cl | inconclusive [inhibitor, full curve, poor fit] |
| COc1cccc(-c2sc3cc(OC)c(OC)cc3c2-c2ccc(OCCN3CCCCC3)cc2)c1 | inconclusive [inhibitor, single point] |
| CC12CCC(O)CC1CCC1C2CCC2(C)C(C(=O)CC(O)C(F)(F)F)CCC12 (stereo not given) | inconclusive [inhibitor, single point] |
| Cc1ccccc1N1CCN(C(=O)c2ccccc2NC(=O)c2ccccc2C(=O)O)CC1 | inactive |
| Cc1ccc2cc3cc(C(=O)N4CCCCC4C)oc3nc2c1 (stereo not given) | inconclusive [inhibitor, single point] |
| C=CCc1ccc(OC)c(OC)c1 | inactive |
| Cc1ccc(NC(=O)C2CCCN(C(=O)c3ccc(Cl)cc3)C2)cc1C (stereo not given) | inconclusive [inhibitor, single point] |
| C=C(C)COc1ccc(-c2nc(N)ncc2Oc2ccccc2OC)c(O)c1 | inconclusive [inhibitor, single point] |
| CC(=O)Nc1ccc(S(=O)(=O)NC(CC(=O)NCCCN2CCOCC2)C(C)C)cc1 (stereo not given) | inactive |
| COC(=O)c1[nH]c2ccc(C)cc2c1NC(=O)CCN1CCN(Cc2ccc3c(c2)OCO3)CC1 | active: 20 µM |
| CCn1cc(C(=O)NCc2ccncc2)c(=O)c2cc(F)c(N3CCN(C(=O)c4ccco4)CC3)cc21 | inconclusive [inhibitor, single point] |
| Cc1nc2ccc(-c3nc4cc(N)ccc4o3)cc2[nH]1 | active: 10 µM |

| SMILES | Potency |
| --- | --- |
| CCOc1cc(C(=O)NCc2ccc3c(c2)OCO3)cc(OCC)c1OCC | inactive |
| CCOC(=O)c1cc2c(=O)n3ccccc3nc2n(C)c1=NC(=O)c1c(-c2c(F)cccc2Cl)noc1C | inconclusive [inhibitor, single point] |
| Cc1csc(SCC(=O)Nc2cccc(S(=O)(=O)N3CCCC3)c2)n1 | inconclusive [inhibitor, partial curve] |
| Nc1nc(-c2ccc(Cl)cc2)c(S(=O)(=O)c2ccccc2)s1 | inactive |
| Cc1csc2nc(COC(=O)c3ccc(Cl)c([N+](=O)[O-])c3)cc(=O)n12 | inconclusive [inhibitor, single point] |
| CCOc1ccc(NC(=O)CN(C)CC(=O)Nc2ccccc2C#N)cc1OCC | inconclusive [inhibitor, single point] |
| COc1cccc(C(=O)N/N=C(/CCC(=O)O)c2ccccc2)c1 | inactive |
| COc1ccc2c(=O)c3c(=O)n(Cc4ccco4)c(-c4ccccc4)nc3oc2c1 | inconclusive [inhibitor, single point] |
| O=C(/C=C/c1ccccc1)Nc1ccc(NC(=O)c2cccs2)cc1 | inactive |
| Cc1ccc(Cl)cc1N1CCN(C(=O)c2noc(C(C)C)c2[N+](=O)[O-])CC1 | active: 3.55 µM |
| Cc1c([N+](=O)[O-])cc(C(=O)NCc2ccc(F)cc2)cc1[N+](=O)[O-] | inconclusive [inhibitor, partial curve] |
| CCN(CCCCCN(C)C)Cc1cc2ccccc2o1 | inconclusive [inhibitor, partial curve] |
| COc1ccc(CNCC(=O)Nc2cc(OC)cc(OC)c2)cc1 | inconclusive [inhibitor, single point] |
| CC(C)c1nc(CN2CCCCC2)cc(=O)[nH]1 | inactive |
| Cc1ccc(S(=O)(=O)NC(=NCc2ccccc2)c2ccc(F)cc2)cc1 | inactive |
| O=C(COC(=O)CNS(=O)(=O)/C=C/c1ccccc1)Nc1cccc2ccccc12 | inactive |
| Cc1cc(C)c(C(=O)CSc2nnc(-c3cccnc3)n2C)c(C)c1 | inactive |
| COc1ccc(Oc2ccccc2/C=N/O)cc1 | inconclusive [inhibitor, partial curve] |
| CCCC(=O)Nc1cc(-c2nn(C)c(=O)c3ccccc23)ccc1N1CCCCC1 | inconclusive [inhibitor, single point] |
| Cc1sc(NC(=O)c2ccccc2)c(C(c2ccc(Cl)cc2)N2CCN(CCO)CC2)c1C (stereo not given) | inconclusive [inhibitor, single point] |
| Cc1cc(C)cc(NCc2cc(=O)oc3cc(-c4ccccc4)c(O)cc23)c1 | inactive |
| COc1ccc(NC(=O)N2CCc3cc(OC)c(OC)cc3C2)cc1 | inconclusive [inhibitor, partial curve] |
| CCCCC[C@H]1CN(Cc2ccccc2)C(=O)[C@@H]1CC(=O)NCc1ccc(OC)cc1 | inconclusive [inhibitor, partial curve] |
| C=C(CN(C)C)C(=O)c1ccc(OC2OC(COC(C)=O)C(OC(C)=O)C(OC(C)=O)C2OC(C)=O)cc1 (stereo not given) | inconclusive [inhibitor, full curve] |

| SMILES | Potency |
| --- | --- |
| COc1ccccc1-c1cn(S(=O)(=O)c2ccc(F)cc2)nc1N | active: 10 µM |
| CCCCOc1c(Cl)cc(C(=O)N(C)CC(=O)Nc2ccc(N3CCOCC3)cc2)cc1OCC | inconclusive [inhibitor, single point] |
| Cc1cc(NC(=O)C(C)Sc2nc(-c3cccs3)nc3ccccc23)no1 (stereo not given) | inconclusive [inhibitor, partial curve, poor fit] |
| Cc1cccc(NS(=O)(=O)c2cccc(C(=O)N3CCN(S(=O)(=O)c4ccccc4)CC3)c2)c1 | inconclusive [inhibitor, partial curve] |
| CCOC(=O)/C=c1\s/c(=C(\C#N)C(=O)NC)n(-c2ccccc2)c1=O | inactive |
| COC(=O)c1ccc(OCc2nc(N)nc(N3CCOCC3)n2)cc1 | inactive |
| CN(C)S(=O)(=O)c1ccc(NC(=O)C2CCCN(C(=O)c3ccc(Cl)cc3)C2)cc1 (stereo not given) | inconclusive [inhibitor, full curve, poor fit] |
| COC(=O)Cc1csc(Nc2ccc(F)c(Cl)c2)n1 | inconclusive [inhibitor, single point] |
| Cc1ccc(C(=O)c2oc3ccccc3c2NC(=O)c2cc(-c3cc(C)ccc3O)n[nH]2)cc1 | inactive |
| CCOc1ccc(C(=O)O/N=C(\N)c2ccccn2)cc1OCC | active: 12.6 µM |
| CCCCc1ccc(NC(=O)C(C)CC)cc1 (stereo not given) | inactive |
| Oc1ccccc1-c1cc(-c2ccco2)[nH]n1 | inconclusive [inhibitor, single point] |
| CCOC(=O)C(C)c1nn(C)c(=O)c2ccccc12 (stereo not given) | inconclusive [inhibitor, single point] |
| CC(OC(=O)c1ccc(O)cc1)C(=O)Nc1cc(C(F)(F)F)ccc1Cl (stereo not given) | inconclusive [inhibitor, single point] |
| Nc1nc(CCl)nc(Nc2cccc3ccccc23)n1 | active: 0.562 µM |
| CSCCn1c(C(C)(C)C)cc(C(=O)O)c1C | inactive |
| Cn1nc(C(=O)NCC2COc3ccccc3O2)c2ccccc2c1=O (stereo not given) | inactive |
| O=C(Nc1ccc(-c2ccco2)cc1)C1CCCN(Cc2ccc(CO)o2)C1 (stereo not given) | inconclusive [inhibitor, single point] |
| O=C1CSC(c2cn(-c3ccccc3)nc2-c2ccccc2)N1Cc1ccco1 (stereo not given) | inconclusive [inhibitor, single point] |
| Cc1ccc(C)c(-n2[nH]c3c4c(ccc3c2=O)C(=O)c2ccccc2C4=O)c1 | inconclusive [inhibitor, single point] |
| Cc1ccc(CNC(=O)c2ccc(N3CCC4(CC3)CC(c3cccc(Br)c3)=NO4)c(NC(=O)c3ccccc3)c2)cc1 | inconclusive [inhibitor, partial curve, poor fit] |
| C#Cc1ccc([C@@H]2C=C(C(=O)OCC=C)O[C@H](OCc3ccc(CO)cc3)C2)cc1 | inconclusive [inhibitor, partial curve] |

Source: PubChem BioAssay AID651820 (National Center for Advancing Translational Sciences (NCATS), 2012)
